# Assay results: publication PMC6919601, “Identification of Plasmodium dipeptidyl aminopeptidase allosteric inhibitors by high throughput screening” (PLoS ONE, 2019)
# About 230 (0.21%) of roughly 110,000 compounds showed an effect of 50% or more. The list shows a part of the results.
# Target: DPAP1 (Plasmodium falciparum, UniProt Q8IIJ9)
# Assay: primary screen, percent inhibition; read by cleavage of a fluorogenic dipeptide substrate; higher = more effect of the substance
# Design: species or system P. falciparum D10 trophozoite lysates; single well
# 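Also: 30 min substrate incubation versus DMSO and 10 µM JCP410 controls.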
# Sequence of DPAP1 (Q8IIJ9 whole entry, looked up): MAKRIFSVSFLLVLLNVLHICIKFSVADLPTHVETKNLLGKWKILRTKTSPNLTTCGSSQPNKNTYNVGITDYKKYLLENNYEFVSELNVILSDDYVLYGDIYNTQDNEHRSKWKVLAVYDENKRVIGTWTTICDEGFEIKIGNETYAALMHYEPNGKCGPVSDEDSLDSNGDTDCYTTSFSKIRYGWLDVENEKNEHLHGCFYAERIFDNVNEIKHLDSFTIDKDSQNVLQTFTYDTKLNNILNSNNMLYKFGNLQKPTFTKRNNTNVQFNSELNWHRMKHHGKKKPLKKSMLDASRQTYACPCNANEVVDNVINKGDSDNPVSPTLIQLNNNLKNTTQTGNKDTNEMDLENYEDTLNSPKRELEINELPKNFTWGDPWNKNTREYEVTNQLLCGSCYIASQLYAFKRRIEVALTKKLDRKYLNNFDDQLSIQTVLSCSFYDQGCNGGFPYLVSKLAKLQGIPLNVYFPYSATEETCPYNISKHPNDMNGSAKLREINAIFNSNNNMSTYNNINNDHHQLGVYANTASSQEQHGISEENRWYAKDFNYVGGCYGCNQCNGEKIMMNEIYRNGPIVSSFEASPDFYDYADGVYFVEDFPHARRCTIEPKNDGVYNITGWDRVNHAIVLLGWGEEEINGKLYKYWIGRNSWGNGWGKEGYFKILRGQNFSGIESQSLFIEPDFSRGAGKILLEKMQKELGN
row,SMILES,% Inhibition @ 10 uM [%]
1,COc1cc(C(=O)NCc2nc3ccccc3n2CC(C)C)cc(OC)c1OC,0.505
2,CCCN1CCN(C(=O)c2oc3ccc(S(=O)(=O)N4CCOCC4)cc3c2C)CC1,-4.06
3,O=C(Nc1c(O)c2ccccc2oc1=O)c1ccccc1F,6.77
4,CN(Cc1ccccc1)S(=O)(=O)c1ccc(N)cc1,0.475
5,Cc1ccc(-c2csc(-c3ccccn3)n2)cc1,1
6,Cn1cnc2c(=O)oc3ccc(S(=O)(=O)N4CCCCC4c4cccnc4)cc3c21 (stereo not drawn),-6.31
7,CCOC(=O)N1CCN(C(=O)c2cc3cc(OC)ccc3oc2=O)CC1,2.26
8,COc1ccc2c(c1)CCC/C2=C\CN1C(=O)c2ccccc2C1O (stereo not drawn),-0.496
9,CC(O)CNc1cnc(O)nc1O (stereo not drawn),-1.68
10,Cc1ccc(C)c(Cc2c(C)nc3c(C(=O)NCc4ccc(F)cc4)cnn3c2C)c1,2.9
11,COc1ccc(-c2nc(CSCC(=O)NCCCN3CCCC3=O)c(C)o2)cc1,-2.85
12,Cc1ccnc(NS(=O)(=O)c2c(C(C)C)cc(C(C)C)cc2C(C)C)c1,0.00784
13,Cc1ccccc1Cn1nc(C)c(NC(=O)C2=CC(c3cccs3)=NS(=O)(=O)N2C)c1C,0.655
14,CCOCCCNC(=O)C1C2C(=O)N(Cc3ccccc3)CC23C=CC1(C)O3 (stereo not drawn),-7.73
15,COc1ccc(Br)cc1/C=c1\sc2nc(-c3ccc(OC)c(OC)c3)nn2c1=O,-4.85
16,O=C(O)CNC(=O)/C(=C/c1ccc2c(c1)OCO2)NC(=O)c1cccc(Br)c1,-0.941
17,COc1ccc(CNC(=O)CN(c2ccc(F)cc2)S(=O)(=O)c2ccc3c(c2)OCCO3)cc1,3.49
18,CCN1C(=O)CC(C(=O)Nc2ccc(OC)cc2)S/C1=N\c1ccc(F)cc1 (stereo not drawn),0.324
19,CCC(CC)N1CCN(S(=O)(=O)c2ccc(OC)cc2)CC1,-3.34
20,Cc1cccc(C)c1N(CC(=O)NCC1CCCO1)S(C)(=O)=O (stereo not drawn),-1.11
21,Cc1ccccc1OC(C)C(=O)Nc1ccccc1O (stereo not drawn),0.795
22,O=c1c(-c2ccc3c(c2)OCCO3)coc2c(CN3CCCCCC3)c(O)ccc12,-3.65
23,COc1ccc(-c2c3c(=O)n(C)c(=O)n(C)c3cn2-c2cccc3ccccc23)cc1,2.95
24,O=C1C2C3C=CC(C4CC34)C2C(=O)N1c1ccncc1 (stereo not drawn),-2.8
25,CCc1nn(CCCC(=O)NCCN2CCOCC2)c(=O)c2cc3occc3n12,1.38
26,O=C(c1ccc(Br)cc1)n1nnc2ccccc21,-2.41
27,O=C(COCc1cc(-c2ccc3c(c2)OCO3)on1)NCc1ccco1,0.822
